Source: publication PMC12820563
The other results are listed elsewhere or left out. The list includes weakly bound sequences.

target: T1, MBP-FoxP3dN (UniProt Q99JB6); experiment: PD-seq (MBP pull-down with sequencing); details: 20 mM Tris-HCl pH 7.5, 100 mM NaCl, 1.5 mM MgCl2, 0.4 uM protein, 0.1 uM dsDNA library, 30 min, room temperature, amylose pull-down; high values mean tight binding; double strand, one strand shown
T1 sequence: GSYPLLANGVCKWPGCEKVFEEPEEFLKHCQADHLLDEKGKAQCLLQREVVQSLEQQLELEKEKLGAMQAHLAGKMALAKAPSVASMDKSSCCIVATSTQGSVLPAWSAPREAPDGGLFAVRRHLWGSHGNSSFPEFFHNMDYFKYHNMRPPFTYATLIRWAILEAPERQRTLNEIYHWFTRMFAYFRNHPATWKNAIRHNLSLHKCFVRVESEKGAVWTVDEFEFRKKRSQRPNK

Sequence | binding signal (RPM ratio (pull-down/input))
GATGATTGTTCTCCCAGCTGATGAATTCCAACCTTCGAGTAAACAAATTTTCCTAATCTTTCTGTTCAAGCGCCATCTAC | 0.236
GATGATTGTTCTCCCAGCTGATGAATTCTGAAGTTCGAGTAAACAAATTTTCCTAATCTTTCTGTTCAAGCGCCATCTAC | 0.292
GATGATTGTTCTCCCAGCTGATGAATTTAACGGCTCGAGTAAACAAATTTTCCTAATCTTTCTGTTCAAGCGCCATCTAC | 0.29
GATGATTGTTCTCCCAGCTGATGAATTTTGATTTTCGAGTAAACAAATTTTCCTAATCTTTCTGTTCAAGCGCCATCTAC | 1.81
GATGATTGTTCTCCCAGCTGATGAATTGCTTACTTCGAGTAAACAAATTTTCCTAATCTTTCTGTTCAAGCGCCATCTAC | 2.35
GATGATTGTTCTCCCAGCTGATGAATTCTTAAATTCGAGTAAACAAATTTTCCTAATCTTTCTGTTCAAGCGCCATCTAC | 0.242
GATGATTGTTCTCCCAGCTGATGAATTGTAGTAATCGAGTAAACAAATTTTCCTAATCTTTCTGTTCAAGCGCCATCTAC | 1.03
GATGATTGTTCTCCCAGCTGATGAATTTAGTGTTTCGAGTAAACAAATTTTCCTAATCTTTCTGTTCAAGCGCCATCTAC | 3.04
GATGATTGTTCTCCCAGCTGATGAATTGTATAACTCGAGTAAACAAATTTTCCTAATCTTTCTGTTCAAGCGCCATCTAC | 0.812
GATGATTGTTCTCCCAGCTGATGAATTGAGATCTTCGAGTAAACAAATTTTCCTAATCTTTCTGTTCAAGCGCCATCTAC | 0.279
GATGATTGTTCTCCCAGCTGATGAATTTAGCACTTCGAGTAAACAAATTTTCCTAATCTTTCTGTTCAAGCGCCATCTAC | 1.13
GATGATTGTTCTCCCAGCTGATGAATTTGGGGGCTCGAGTAAACAAATTTTCCTAATCTTTCTGTTCAAGCGCCATCTAC | 0.566
GATGATTGTTCTCCCAGCTGATGAATTTGAAGCCTCGAGTAAACAAATTTTCCTAATCTTTCTGTTCAAGCGCCATCTAC | 0.46
GATGATTGTTCTCCCAGCTGATGAATTTTGCTGATCGAGTAAACAAATTTTCCTAATCTTTCTGTTCAAGCGCCATCTAC | 3.05
GATGATTGTTCTCCCAGCTGATGAATTTGCTAGCTCGAGTAAACAAATTTTCCTAATCTTTCTGTTCAAGCGCCATCTAC | 2.5
GATGATTGTTCTCCCAGCTGATGAATTGCAAAGCTCGAGTAAACAAATTTTCCTAATCTTTCTGTTCAAGCGCCATCTAC | 0.553
GATGATTGTTCTCCCAGCTGATGAATTAAAACTTTCGAGTAAACAAATTTTCCTAATCTTTCTGTTCAAGCGCCATCTAC | 0.401
GATGATTGTTCTCCCAGCTGATGAATTTATGAAGTCGAGTAAACAAATTTTCCTAATCTTTCTGTTCAAGCGCCATCTAC | 0.325
GATGATTGTTCTCCCAGCTGATGAATTACTAAAGTCGAGTAAACAAATTTTCCTAATCTTTCTGTTCAAGCGCCATCTAC | 0.271
GATGATTGTTCTCCCAGCTGATGAATTTTTAAAGTCGAGTAAACAAATTTTCCTAATCTTTCTGTTCAAGCGCCATCTAC | 0.193
GATGATTGTTCTCCCAGCTGATGAATTACGTTCCTCGAGTAAACAAATTTTCCTAATCTTTCTGTTCAAGCGCCATCTAC | 0.631

Sequence | binding signal (RPM ratio (pull-down/input))
GATGATTGTTCTCCCAGCTGATGAATTGTTCTAATCGAGTAAACAAATTTTCCTAATCTTTCTGTTCAAGCGCCATCTAC | 0.47
GATGATTGTTCTCCCAGCTGATGAATTGCTGTACTCGAGTAAACAAATTTTCCTAATCTTTCTGTTCAAGCGCCATCTAC | 0.736
GATGATTGTTCTCCCAGCTGATGAATTGGATGAATCGAGTAAACAAATTTTCCTAATCTTTCTGTTCAAGCGCCATCTAC | 0.262
GATGATTGTTCTCCCAGCTGATGAATTTTAGATATCGAGTAAACAAATTTTCCTAATCTTTCTGTTCAAGCGCCATCTAC | 0.486
GATGATTGTTCTCCCAGCTGATGAATTTAAGGCATCGAGTAAACAAATTTTCCTAATCTTTCTGTTCAAGCGCCATCTAC | 0.732
GATGATTGTTCTCCCAGCTGATGAATTACTGACATCGAGTAAACAAATTTTCCTAATCTTTCTGTTCAAGCGCCATCTAC | 0.506
GATGATTGTTCTCCCAGCTGATGAATTATTCTCGTCGAGTAAACAAATTTTCCTAATCTTTCTGTTCAAGCGCCATCTAC | 0.288
GATGATTGTTCTCCCAGCTGATGAATTTCGGCCCTCGAGTAAACAAATTTTCCTAATCTTTCTGTTCAAGCGCCATCTAC | 0.426
GATGATTGTTCTCCCAGCTGATGAATTTGGATAATCGAGTAAACAAATTTTCCTAATCTTTCTGTTCAAGCGCCATCTAC | 0.467
GATGATTGTTCTCCCAGCTGATGAATTCTGCCAGTCGAGTAAACAAATTTTCCTAATCTTTCTGTTCAAGCGCCATCTAC | 2.44
GATGATTGTTCTCCCAGCTGATGAATTTACCATATCGAGTAAACAAATTTTCCTAATCTTTCTGTTCAAGCGCCATCTAC | 0.721
GATGATTGTTCTCCCAGCTGATGAATTCTCCCCGTCGAGTAAACAAATTTTCCTAATCTTTCTGTTCAAGCGCCATCTAC | 0.178
GATGATTGTTCTCCCAGCTGATGAATTCATAAGTTCGAGTAAACAAATTTTCCTAATCTTTCTGTTCAAGCGCCATCTAC | 0.309
GATGATTGTTCTCCCAGCTGATGAATTTAGGAGGTCGAGTAAACAAATTTTCCTAATCTTTCTGTTCAAGCGCCATCTAC | 0.288
GATGATTGTTCTCCCAGCTGATGAATTGACCCTATCGAGTAAACAAATTTTCCTAATCTTTCTGTTCAAGCGCCATCTAC | 0.371
GATGATTGTTCTCCCAGCTGATGAATTCTTGATATCGAGTAAACAAATTTTCCTAATCTTTCTGTTCAAGCGCCATCTAC | 0.413
GATGATTGTTCTCCCAGCTGATGAATTTGTGGTGTCGAGTAAACAAATTTTCCTAATCTTTCTGTTCAAGCGCCATCTAC | 6.2
GATGATTGTTCTCCCAGCTGATGAATTAGTCGCTTCGAGTAAACAAATTTTCCTAATCTTTCTGTTCAAGCGCCATCTAC | 0.902
GATGATTGTTCTCCCAGCTGATGAATTTCTCAACTCGAGTAAACAAATTTTCCTAATCTTTCTGTTCAAGCGCCATCTAC | 0.271
GATGATTGTTCTCCCAGCTGATGAATTGTCCTCGTCGAGTAAACAAATTTTCCTAATCTTTCTGTTCAAGCGCCATCTAC | 0.324
GATGATTGTTCTCCCAGCTGATGAATTAAGCGCTTCGAGTAAACAAATTTTCCTAATCTTTCTGTTCAAGCGCCATCTAC | 0.691

Sequence | binding signal (RPM ratio (pull-down/input))
GATGATTGTTCTCCCAGCTGATGAATTTCACCTGTCGAGTAAACAAATTTTCCTAATCTTTCTGTTCAAGCGCCATCTAC | 0.326
GATGATTGTTCTCCCAGCTGATGAATTTTCGTGGTCGAGTAAACAAATTTTCCTAATCTTTCTGTTCAAGCGCCATCTAC | 0.318
GATGATTGTTCTCCCAGCTGATGAATTGCGCCCCTCGAGTAAACAAATTTTCCTAATCTTTCTGTTCAAGCGCCATCTAC | 2.8
GATGATTGTTCTCCCAGCTGATGAATTGGAGGGGTCGAGTAAACAAATTTTCCTAATCTTTCTGTTCAAGCGCCATCTAC | 0.289
GATGATTGTTCTCCCAGCTGATGAATTACTTAACTCGAGTAAACAAATTTTCCTAATCTTTCTGTTCAAGCGCCATCTAC | 0.277
GATGATTGTTCTCCCAGCTGATGAATTTCGAAACTCGAGTAAACAAATTTTCCTAATCTTTCTGTTCAAGCGCCATCTAC | 0.592
GATGATTGTTCTCCCAGCTGATGAATTTCTCATTTCGAGTAAACAAATTTTCCTAATCTTTCTGTTCAAGCGCCATCTAC | 0.315
GATGATTGTTCTCCCAGCTGATGAATTGTGACTCTCGAGTAAACAAATTTTCCTAATCTTTCTGTTCAAGCGCCATCTAC | 2.61
GATGATTGTTCTCCCAGCTGATGAATTCCCATCATCGAGTAAACAAATTTTCCTAATCTTTCTGTTCAAGCGCCATCTAC | 0.449
GATGATTGTTCTCCCAGCTGATGAATTACCTCCATCGAGTAAACAAATTTTCCTAATCTTTCTGTTCAAGCGCCATCTAC | 0.326
GATGATTGTTCTCCCAGCTGATGAATTTTACTATTCGAGTAAACAAATTTTCCTAATCTTTCTGTTCAAGCGCCATCTAC | 0.588
GATGATTGTTCTCCCAGCTGATGAATTGCCCGATTCGAGTAAACAAATTTTCCTAATCTTTCTGTTCAAGCGCCATCTAC | 0.399
GATGATTGTTCTCCCAGCTGATGAATTAGTTCGATCGAGTAAACAAATTTTCCTAATCTTTCTGTTCAAGCGCCATCTAC | 0.311
GATGATTGTTCTCCCAGCTGATGAATTAGTAAGGTCGAGTAAACAAATTTTCCTAATCTTTCTGTTCAAGCGCCATCTAC | 0.467
GATGATTGTTCTCCCAGCTGATGAATTTGTAGCGTCGAGTAAACAAATTTTCCTAATCTTTCTGTTCAAGCGCCATCTAC | 4.35
GATGATTGTTCTCCCAGCTGATGAATTTTCGCCTTCGAGTAAACAAATTTTCCTAATCTTTCTGTTCAAGCGCCATCTAC | 3.05
GATGATTGTTCTCCCAGCTGATGAATTTAACGGATCGAGTAAACAAATTTTCCTAATCTTTCTGTTCAAGCGCCATCTAC | 0.224
GATGATTGTTCTCCCAGCTGATGAATTACAGACCTCGAGTAAACAAATTTTCCTAATCTTTCTGTTCAAGCGCCATCTAC | 0.28
GATGATTGTTCTCCCAGCTGATGAATTAAGACGTTCGAGTAAACAAATTTTCCTAATCTTTCTGTTCAAGCGCCATCTAC | 0.38
GATGATTGTTCTCCCAGCTGATGAATTTGATGGCTCGAGTAAACAAATTTTCCTAATCTTTCTGTTCAAGCGCCATCTAC | 2.49
GATGATTGTTCTCCCAGCTGATGAATTGAACAGTTCGAGTAAACAAATTTTCCTAATCTTTCTGTTCAAGCGCCATCTAC | 0.266
